The target in series [1] is T1, full-length single-chain uPA (scuPA) (UniProt P00749).
T1 construct: Secreted protein; source: Drosophila S2 cells, secreted, purified (SPFF, C8 reverse phase HPLC)
Description: SPR; Biacore T200; suPAR monomer or dimer captured on anti-uPAR antibody immobilised on a CM5 chip; ATF (0.14-33.3 nM) or scuPA (0.54-44.4 nM) flowed over; 10 mM HEPES, 150 mM NaCl, 3 mM EDTA, 0.005% P-20, pH 7.4, 20 °C; 1:1 Langmuir fit. The conditions noted are these: both partners purified. A general note: Surface plasmon resonance follows binding to a sensor surface in real time, without labels.

Series [2] concerns the molecule itself. Briefly: SEC; suPAR dissolved at 0.25, 1, 4 or 16 mg/mL at pH 4.6 or pH 7.4, 4 °C for one day; Superdex 200 10/300, 20 mM Tris pH 7.4, 150 mM KCl; monomer to dimer. Background: Size exclusion chromatography separates by hydrodynamic size, large species first.

A word on the Kd: it is a measure of binding affinity in units of concentration. Broadly, the stoichiometry N is the number of molecules, sites or subunits per partner or assembly.

B1: soluble uPAR (suPAR), monomer (receptor)
chain: not shown
notes: N-glycosylated; A selenomethionine-substituted preparation was used for phasing of the low-pH crystal structure; also called monomeric suPAR; monomeric uPAR; source: lyophilized
For B1, the Kd in series [1] came out at 0.149 nM. The “stoichiometry N” value in series [2] was determined as 2.

For the origin of these results see article PMC8964761, “Crystal structure and cellular functions of uPAR dimer” (Nature Communications, 2022).
